PubChem BioAssay AID686970 (National Center for Advancing Translational Sciences (NCATS), 2013)
Out of some 360,000 compounds screened, about 6,000 (1.7%) were called active. The shares of active, inactive and inconclusive entries below differ from those in the screen. Calls follow the shape of the dose curve; as a rule, active = well fitted cell-killing curve with a large enough effect; inconclusive = small, poorly fitted or top-dose-only effect, or effect the other way; inactive = flat fitted curve, though single readings scatter. Potencies of inconclusive entries are left out as doubtful fits.

Experiment: qHTS for induction of synthetic lethality in tumor cells producing 2HG: qHTS for the HT-1080-NT fibrosarcoma cell line;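 also: NT is the 2HG producing partner of a matched IDH1 knockdown line; nearly all actives have a fitted effect of over 55% in size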;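 as to activity, negative = less viability: 0% = DMSO-treated cells and -100% = media-only wells without cells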
Conditions: HT-1080-NT fibrosarcoma viability, CellTiter-Glo ATP luminescence, 48 h; activity, negative = less viability: at 46.1 µM (top of the series) unless noted
How it was run: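 Fibrosarcoma NT cells, 750 per well in 5% FBS RPMI, were exposed to compound for 48 hours. Viability: CellTiter-Glo luminescence.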
Potency is read from the fitted curve at half-maximal effect; tags tell the direction and shape of the fitted curve.

SMILES | Potency | activity, negative = less viability
CCc1ccccc1NC(=S)NCc1ccc2c(c1)OCO2 | inconclusive [cytotoxic, single point] | –
CC1(C(=O)Nc2cccc(OC(F)(F)F)c2)Cc2c(-c3cccc(C(N)=O)c3)ccnc2O1 (configuration not stated) | inconclusive [cytotoxic, single point] | –
COc1ccc(-c2nc(N/N=C(\C)c3ccc(O)cc3)c3ccccc3n2)cc1 | inconclusive [cytotoxic, single point] | –
Oc1ccc(Cl)c(CN2CCN(c3ncc(Cc4ccccc4)cn3)CC2)c1 | inconclusive [cytotoxic, single point] | –
COc1ccc([C@H]2C[C@H](O)[C@@H](n3cc(COC(=O)c4ccccc4)nn3)CN2CC2CCCCC2)cc1 | inconclusive [cytotoxic, single point] | –
CCOC(=O)Nc1ccc(N2CCOCC2)c(S(=O)(=O)Nc2ccc(Cl)cc2)c1 | inconclusive [cytotoxic, partial curve] | –
Cc1ccc(C(C)C)c(OCCNC(=S)Nc2cccc3ccccc23)c1 | active: 5.62 µM | –
COC(=O)CN(C)C1CC(=O)N(c2ccc(Cl)cc2)C1=O (configuration not stated) | inconclusive [rising, single point] | –
O=C(Nc1ccccc1Cl)c1cc(C2CCCN(C(=O)CCCc3ccccc3)C2)on1 (configuration not stated) | inactive | –
COc1ccc2[nH]c(=O)c(CN(C(C)=O)c3cc(C)ccc3C)cc2c1 | inactive | –
N#Cc1c(NCCN)nc(-c2ccco2)c2c1CCCC2 | inconclusive [cytotoxic, single point] | –
Cc1ccc(-c2cc(C(=O)N3CCN(c4ncccn4)CC3)c3ccccc3n2)cc1 | inconclusive [cytotoxic, partial curve] | –
CC(N)c1csc(Nc2nncc3ccccc23)n1 (configuration not stated) | inconclusive [cytotoxic, single point] | –
NC(=O)c1ccsc1NC(=O)COC(=O)Cc1c[nH]c2ccccc12 | inactive | –
Cc1nn(Cc2ccc(C(=O)Nc3ccc(C(=O)OC(C)C)cc3)o2)c(C)c1Cl | inconclusive [cytotoxic, single point] | –
COc1ccccc1N1CCN(C2=Nc3cccc4cccc2c34)CC1 | inconclusive [cytotoxic, partial curve] | –
O=C1OCC2=C1C(c1ccc(F)cc1)c1cc3c(cc1N2)OCO3 (configuration not stated) | active: 0.184 µM | –
N#Cc1ccc(S(=O)(=O)N2CCCCC2c2cc(C(=O)NCc3ccccc3)no2)cc1 (configuration not stated) | inactive | –
Cc1cccc(C)c1N=Nc1c(C)cc(O)cc1C | inconclusive [cytotoxic, single point] | –
CN(Cc1ccccc1)C(=O)CSc1nc2ccccc2c(=O)n1Cc1ccco1 | inconclusive [cytotoxic, single point] | –
Cn1c(CCCOc2ccc(Cl)cc2Cl)nnc1SCC(=O)Nc1cccc(F)c1 | inconclusive [cytotoxic, single point] | –
COc1ccc(NS(=O)(=O)c2cc(NC(=O)c3ccc(C)o3)ccc2N2CCCCC2)cc1 | inactive | –
Cc1cc2c3c(c1C)C1(C(=O)N3C(C)(C)CC2C)C(C#N)=C(N)Oc2n[nH]c(C)c21 (configuration not stated) | inconclusive [cytotoxic, single point] | –

SMILES | Potency | activity, negative = less viability
O=C(N/N=C/c1ccco1)c1cc(-c2cccc(Br)c2)nc2ccccc12 | inconclusive [cytotoxic, partial curve] | –
CN(C)c1ccc(NC(=S)c2ccccn2)cc1 | inconclusive [cytotoxic, single point] | –
O=C(CN1C(=O)NC2(CCCC2)C1=O)NCc1ccc(Cl)cc1 | inactive | –
COc1ccccc1NC(=O)c1oc2ccccc2c1NC(=O)C1CC1 | inactive | –
COc1cc2c(cc1OC)C1C(C(=O)Nc3ccccc3N3CCN(C)CC3)c3ccccc3C(=O)N1CC2 (configuration not stated) | inactive | –
CC(C)=CCc1c(-c2ccc(O)cc2O)oc2c3c(cc(O)c2c1=O)OC(C)(C)C=C3 | inconclusive [cytotoxic, single point] | –
Cc1cccc(Oc2nc(-c3ccncc3)nc3ccccc23)c1 | inconclusive [cytotoxic, partial curve, poor fit] | –
Cc1ccc(C(C)C)c(OCc2ccc(-c3nnco3)cc2)c1 | inconclusive [cytotoxic, single point] | –
Cc1ccc(C(c2cc(Cl)c3cccnc3c2O)N2CCN(C)CC2)cc1 (configuration not stated) | inconclusive [cytotoxic, partial curve] | –
COc1cc2nc(C3CCC3)nc(N3CCN(c4ccccc4OC)CC3)c2cc1OC | inactive | –
O=C1/C(=C\c2ccc(O)cc2)SC(=S)N1Cc1ccccc1 | inconclusive [cytotoxic, single point] | –
Cc1cc(C(=O)N2CCC2(C)C(=O)NS(=O)(=O)c2ccc(Cl)cc2)nn1C (configuration not stated) | inconclusive [rising, partial curve, poor fit] | –
C=CCN1C(=O)/C(=C2/Sc3ccc(OC)cc3N2C)SC1=NCc1ccccc1 | inactive | –
CCSc1nnc(-c2cccc(S(=O)(=O)N(CC)CC)c2)n1Cc1ccccc1 | inconclusive [cytotoxic, partial curve] | –
CC(C)C[C@@H](CN1CCC[C@@H]1CN1C(=S)NC[C@@H]1Cc1ccccc1)N1C[C@H](Cc2ccc(O)cc2)N(CC2CCCCCC2)C1=S | inconclusive [cytotoxic, single point] | –
OCCCCNCc1ccc(OCc2ccc(Cl)cc2Cl)cc1 | inconclusive [cytotoxic, single point] | –
CC(=O)Nc1ccc(S(=O)(=O)N(C)c2ccc(OCC(=O)NCCc3ccccc3F)cc2)cc1 | inactive | –
Clc1ccc(-c2noc(CSc3nnc(-c4ccncc4)n3-c3ccccc3)n2)cc1 | inconclusive [cytotoxic, single point] | –
COc1cccc(CC2(CO)CCCN(Cc3ccccc3-c3ccco3)C2)c1 (configuration not stated) | inconclusive [cytotoxic, single point] | –
O=C(CSc1nc(-c2ccco2)cc(C(F)(F)F)n1)Nc1cccnc1 | inconclusive [cytotoxic, single point] | –
c1ccc2c(-c3cnc4cccnn34)cncc2c1 | inactive | –
CN(C)N1C(N)=C(C#N)C(c2cccc3ccccc23)C2=C1CC(c1ccccc1)CC2=O (configuration not stated) | inconclusive [cytotoxic, single point] | –
CC(C)c1ccc(O)c(NC(=S)NC(=O)c2ccc3c(c2)OCO3)c1 | inconclusive [cytotoxic, single point] | –

SMILES | Potency | activity, negative = less viability
Cc1cc(C(=O)N/N=C/c2c3ccccc3cc3ccccc23)n[nH]1 | inconclusive [cytotoxic, single point] | –
Cc1cc2cc(C=O)c(Cl)nc2cc1C | – | inconclusive: 4.26%
Clc1ccc2c(NCc3ccccc3)ccnc2c1 | inconclusive [cytotoxic, partial curve] | –
Cc1cc(C)c2nc(NNC(=O)c3ccc(S(=O)(=O)N4CC(C)CC(C)C4)cc3)sc2c1 (configuration not stated) | inconclusive [cytotoxic, single point] | –
COC(=O)[C@@]12C[C@@H](CC(=O)NCc3ccccc3)C(=O)N(Cc3ccc4c(c3)OCO4)C1=CCC(C)(C)C2 | inconclusive [cytotoxic, partial curve] | –
Cc1nc(Sc2nnnn2C)c2c3c(sc2n1)CCC3 | active: 3.26 µM | –
CN(Cc1cc(Cl)cc(Cl)c1)[C@H]1C[C@H]2c3[nH]c4ccccc4c3CCN2C(=O)[C@H]1CO | inconclusive [cytotoxic, single point] | –
O=C(CCc1ccc(S(=O)(=O)N2CCOCC2)cc1)Nc1ccccc1F | inactive | –
C=CCn1c(SCC(N)=O)nnc1-c1cnccn1 | inconclusive [rising, single point] | –
CN(C)c1ccc(NC(=O)/C=C/c2c(Cl)cccc2Cl)cc1 | inconclusive [cytotoxic, partial curve] | –
CC(=O)Oc1ccccc1C(=O)Nc1ccccc1C(=O)N1CCCCC1 | inactive | –
Cc1ccc(-c2cc3nc(C)cc(N4CCN(C(=O)c5ccoc5)CC4)n3n2)cc1 | inactive | –
Cc1ccc(NC(=O)c2ccc(Cl)c(S(=O)(=O)N3CCc4ccccc43)c2)nc1 | inconclusive [cytotoxic, partial curve] | –
CCn1cc(C(=O)Nc2ccc(C)cc2[N+](=O)[O-])c(C)n1 | inactive | –
CCS(=O)(=O)c1ccc(-c2cccc(NC(=O)c3ccco3)c2)nn1 | inactive | –
COc1ccccc1CNC(=O)CSc1ncc(C(=O)Nc2ccccc2)c(=O)n1C | inactive | –
CN1CCN(CC(=O)N2CCn3c4c(c5cc(C6CCCCC6)ccc53)CCCC42)CC1 (configuration not stated) | inconclusive [cytotoxic, single point] | –
N#Cc1cccnc1N1CCN(C(=O)c2cccc3c2C(=O)c2ccc(Cl)cc2S3(=O)=O)CC1 | inconclusive [cytotoxic, single point] | –
COc1cccc(OC)c1C(=O)Nc1c(C(=O)N2CCN(c3ccccn3)CC2)oc2ccccc12 | inconclusive [rising, partial curve, poor fit] | –
CCC(=O)c1ccc(OCC(O)CN(CCc2ccccc2)Cc2ccccc2)cc1 (configuration not stated) | inconclusive [cytotoxic, single point] | –
Cc1ccc(N/N=C/c2cccnc2)cc1 | inconclusive [cytotoxic, partial curve] | –
